The list shows a part of the results. Most values come without repeats; read them as rough.
Experiments:
Experiment in all cases: cell count relative to DMSO control; melanoma cells; higher = more viable cells
Conditions in all cases: library dose: standard library concentration; 72 h
[1] = test system: G361
[2] = test system: IPC-298
[3] = test system: IST-MEL1
[4] = test system: LB2518-MEL
[5] = test system: LOXIMVI
[6] = test system: MEL-HO
[7] = test system: MZ2-MEL
[8] = test system: MeWo
[9] = test system: RPMI7951
[10] = test system: RVH-421
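Note: cells treated in 1,536-well plates, then fixed and DAPI-stained, with nuclei counted from automated high-throughput microscope images.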

Row | SMILES | cell count [1] [%] | cell count [2] [%] | cell count [3] [%] | cell count [4] [%] | cell count [5] [%] | cell count [6] [%] | cell count [7] [%] | cell count [8] [%] | cell count [9] [%] | cell count [10] [%]
1 | Cn1c(Nc2ccc(C(F)(F)F)cc2)nc2cc(Oc3ccnc(-c4ncc(C(F)(F)F)[nH]4)c3)ccc21 + Cn1cncc1[C@@](N)(c1ccc(Cl)cc1)c1ccc2c(c1)c(-c1cccc(Cl)c1)cc(=O)n2C [tipifarnib] (first compound 0.4 µM, partner dose 0.05 µM) | 25.5 | 46.8 | 70.7 | 27 | 68.5 | 76 | 83.1 | 73.8 | 59.1 | 57.9
2 | Nc1cccc2c1CN(C1CCC(=O)NC1=O)C2=O (stereo not given) [lenalidomide] + CCN(CC)CCCCNc1ncc2cc(-c3cc(OC)cc(OC)c3)c(NC(=O)NC(C)(C)C)nc2n1 [PD173074] (first compound 5 µM, partner dose 0.5 µM) | 98.2 | 110 | 106 | 82.3 | 89.3 | 103 | 107 | 107 | 103 | 82.8
3 | C#Cc1cccc(Nc2ncnc3cc(OCCOC)c(OCCOC)cc23)c1 [erlotinib] + Oc1nc(-c2ccc(C(F)(F)F)cc2)nc2c1CSCC2 [XAV939] (first compound 4 µM, partner dose 10 µM) | 64.4 | 82.8 | 81.8 | 68.4 | 76.5 | 73.7 | 70 | 81.1 | 44.7 | 92.8
4 | O=C(CCCCCCC(=O)Nc1ccccc1)NO [vorinostat] + NCC(=O)Nc1ccc(-n2nc(C(F)(F)F)cc2-c2ccc3c(ccc4ccccc43)c2)cc1 [OSU03012] (first compound 0.4 µM, partner dose 5 µM) | 49.1 | 53.7 | 81.4 | 66.5 | 65.3 | 62 | 80.7 | 66.6 | 71.1 | 86.3
5 | O=C(CCCCCCC(=O)Nc1ccccc1)NO [vorinostat] + Oc1cc(-c2nc(-c3ccccc3)[nH]c2-c2ccncc2)ccc1Cl [L779450] (first compound 0.4 µM, partner dose 1 µM) | 47.1 | 73 | 94.6 | 96.2 | 112 | 74.5 | 99.4 | 82.3 | 60.1 | 86.9
6 | Cn1c(Nc2ccc(C(F)(F)F)cc2)nc2cc(Oc3ccnc(-c4ncc(C(F)(F)F)[nH]4)c3)ccc21 + COc1ccc(COc2ccc(Cc3cnc(N)nc3N)cc2OC)cc1 [GW2580] (first compound 0.4 µM, partner dose 5 µM) | 28.3 | 48.2 | 97 | 41.9 | 98.7 | 73.8 | 66.2 | 66.9 | 58.8 | 63.7
7 | Cn1c(Nc2ccc(C(F)(F)F)cc2)nc2cc(Oc3ccnc(-c4ncc(C(F)(F)F)[nH]4)c3)ccc21 + CN(NC(=O)CC(=O)NN(C)C(=S)c1ccccc1)C(=S)c1ccccc1 [STA4783] (first compound 0.4 µM, partner dose 0.03 µM) | 15.9 | 44.7 | 32.5 | 7.46 | 44.9 | 65.2 | 71.2 | 12 | 39.7 | 44.6
8 | Clc1ccc(Nc2nnc(Cc3ccncc3)c3ccccc23)cc1 [vatalanib] + Cc1nc(Nc2ncc(C(=O)Nc3c(C)cccc3Cl)s2)cc(N2CCN(CCO)CC2)n1 [dasatanib] (first compound 10 µM, partner dose 0.02 µM) | 61.5 | 58.7 | 53.6 | 60.8 | 7.13 | 49.6 | 27.2 | 71.4 | 23 | 56
9 | C#Cc1cccc(Nc2ncnc3cc(OCCOC)c(OCCOC)cc23)c1 [erlotinib] + O=C(Nc1ccccc1)c1cc([N+](=O)[O-])ccc1Cl [GW9662] (first compound 4 µM, partner dose 10 µM) | 73.4 | 67.1 | 106 | 47.6 | 67.9 | 70.9 | 58.4 | 66.2 | 59 | 67.4
10 | Clc1ccc(Nc2nnc(Cc3ccncc3)c3ccccc23)cc1 [vatalanib] + O=C(Nc1cccc(Cl)c1)Nc1ncc(CCNc2ncnc3ccsc23)s1 [SNS314] (first compound 10 µM, partner dose 0.004 µM) | 63.3 | 81.3 | 71.2 | 79.1 | 72.4 | 70.4 | 85.3 | 71.6 | 53.4 | 68.3
11 | Clc1ccc(Nc2nnc(Cc3ccncc3)c3ccccc23)cc1 [vatalanib] + COc1ccc(COc2ccc(Cc3cnc(N)nc3N)cc2OC)cc1 [GW2580] (first compound 10 µM, partner dose 5 µM) | 74.8 | 69.5 | 84.6 | 93.8 | 83.9 | 80.5 | 79.3 | 65.6 | 73.3 | 87.4
12 | Nc1cccc2c1CN(C1CCC(=O)NC1=O)C2=O (stereo not given) [lenalidomide] + O=C(Nc1ccccc1)c1cc([N+](=O)[O-])ccc1Cl [GW9662] (first compound 5 µM, partner dose 10 µM) | 73.3 | 106 | 107 | 92.7 | 91 | 85.4 | 81.5 | 91.5 | 96.6 | 72.8
13 | Cn1c(Nc2ccc(C(F)(F)F)cc2)nc2cc(Oc3ccnc(-c4ncc(C(F)(F)F)[nH]4)c3)ccc21 + NC(=O)Nc1cc(-c2cccc(F)c2)sc1C(=O)N[C@H]1CCCNC1 [AZD7762] (first compound 0.4 µM, partner dose 0.1 µM) | 21.6 | 49 | 69.6 | 27.5 | 55.9 | 57.1 | 71.6 | 65.5 | 33.2 | 76.8
14 | OCc1c[nH]c2ccccc12 [Indole-3-carbinol] + Cc1cc([N+](=O)[O-])ccc1NS(=O)(=O)c1cc(Cl)ccc1Cl [FH535] (first compound 4 µM, partner dose 5 µM) | 40.1 | 49.9 | 53.5 | 77.4 | 68.2 | 49 | 57.6 | 80.8 | 88.8 | 51.4
15 | COCC[n+]1c2c(n(Cc3cnccn3)c1C)C(=O)c1ccccc1C2=O + Cc1cc(N2CCOCC2)cc2[nH]c(-c3c(NC[C@@H](O)c4cccc(Cl)c4)cc[nH]c3=O)nc12 [BMS536924] (first compound 0.002 µM, partner dose 1 µM) | 69 | 52.7 | 36.5 | 32.8 | 67.7 | 95.6 | 27.6 | 29.4 | 41.7 | 76.5
16 | COCC[n+]1c2c(n(Cc3cnccn3)c1C)C(=O)c1ccccc1C2=O + COc1cc2c(Oc3ccc4[nH]c(C)cc4c3F)ncnc2cc1OCCCN1CCCC1 [cediranib] (first compound 0.002 µM, partner dose 2 µM) | 67.8 | 58.5 | 39.2 | 31.1 | 95.7 | 91.7 | 53.6 | 51 | 46.6 | 94.8
17 | Clc1ccc(Nc2nnc(Cc3ccncc3)c3ccccc23)cc1 [vatalanib] + CC(C)CCN1c2nc(Nc3cc(F)c(O)c(F)c3)ncc2N(C)C(=O)C1C [BID1870] (first compound 10 µM, partner dose 1 µM) | 59.9 | 65.1 | 79.9 | 92.4 | 64.7 | 57.1 | 83.5 | 65.5 | 90 | 68.9
18 | Nc1cccc2c1CN(C1CCC(=O)NC1=O)C2=O (stereo not given) [lenalidomide] + Cc1ccc(NC(=O)c2cccc(N(C)C)c2)cc1NC(=O)c1ccc(O)cc1 [ZM336372] (first compound 5 µM, partner dose 10 µM) | 105 | 104 | 96.6 | 101 | 125 | 87.2 | 115 | 87.9 | 110 | 130
19 | C#Cc1cccc(Nc2ncnc3cc(OCCOC)c(OCCOC)cc23)c1 [erlotinib] + CC(C)CCN1c2nc(Nc3cc(F)c(O)c(F)c3)ncc2N(C)C(=O)C1C [BID1870] (first compound 4 µM, partner dose 1 µM) | 44.9 | 70.8 | 92.5 | 68.5 | 237 | 57.3 | 82.2 | 55.6 | 72.6 | 97
20 | OCc1c[nH]c2ccccc12 [Indole-3-carbinol] + COc1cc2c(Oc3ccc4[nH]c(C)cc4c3F)ncnc2cc1OCCCN1CCCC1 [cediranib] (first compound 4 µM, partner dose 2 µM) | 82.5 | 112 | 103 | 92.8 | 77.5 | 110 | 97.3 | 91.3 | 75 | 89.6
21 | C#Cc1cccc(Nc2ncnc3cc(OCCOC)c(OCCOC)cc23)c1 [erlotinib] + O=C1NC(=O)/C(=C/c2ccc(-c3ccc(F)cc3O)o2)S1 [AS252424] (first compound 4 µM, partner dose 5 µM) | 66.8 | 71.8 | 98 | 72.1 | 75.9 | 70.6 | 90.5 | 69.4 | 63.4 | 113
22 | OCc1c[nH]c2ccccc12 [Indole-3-carbinol] + Cn1c(Nc2ccc(C(F)(F)F)cc2)nc2cc(Oc3ccnc(-c4ncc(C(F)(F)F)[nH]4)c3)ccc21 [CHIR265] (first compound 4 µM, partner dose 0.4 µM) | 23.7 | 40.1 | 83.5 | 42 | 78.3 | 63.2 | 68.5 | 74 | 63.9 | 48.6
23 | Clc1ccc(Nc2nnc(Cc3ccncc3)c3ccccc23)cc1 [vatalanib] + Nc1cccc2c1CN(C1CCC(=O)NC1=O)C2=O [lenalidomide] (first compound 10 µM, partner dose 5 µM) | 65 | 62.1 | 84.2 | 78.8 | 61.3 | 58.9 | 63.7 | 67.9 | 86.9 | 87.7

From the supplement of paper PMC4604168 (melanoma cell lines)
